For 27 compounds, cytotoxicity call and growth inhibition call results are on record in the antibiotic and cytotoxicity screens of Wong et al. (2023).

Structures are written as SMILES. The list shows a part of the results.

One test has as its system HSkMC. The test is described as follows: cytotoxicity call (relative viability < 0.9). Conditions: 10 µM.
The subject of a further test is HepG2. The test is described as follows: cytotoxicity call (relative viability < 0.9). Conditions: 10 µM.
Another test has as its system S. aureus RN4220. The test is described as follows: growth inhibition call (relative growth <= 0.2). Conditions: 50 µM.

In the case of `C[C@@H]1CCCCO[C@@H](CN(C)CC2CCCCC2)[C@@H](C)CN([C@H](C)CO)C(=O)c2cc(NC(=O)Nc3ccccc3)ccc2O1`, in the test on HSkMC, the cytotoxicity call is “inactive”. For the same compound, the cytotoxicity call with HepG2 was “active”. The growth inhibition call in the test with S. aureus RN4220 is “inactive”.
Consider `C[C@@H]1CCCCO[C@@H](CN(C)Cc2ccccc2)[C@H](C)CN([C@@H](C)CO)C(=O)c2cc(NC(=O)Nc3ccc(C(F)(F)F)cc3)ccc2O1`, for which, in the test with HSkMC, the cytotoxicity call was “inactive”. In addition, in the test on HepG2, the cytotoxicity call is “active”. The growth inhibition call in the test on S. aureus RN4220 was “inactive”.
For `Cc1noc(C)c1NC(=O)N(C)C[C@@H]1Oc2c(NS(C)(=O)=O)cccc2C(=O)N([C@@H](C)CO)C[C@H]1C`, the cytotoxicity call in the test with HSkMC and in the test with HepG2 was “inactive” throughout. Further, the growth inhibition call in the test with S. aureus RN4220 was “inactive”.
Take `COc1ccc(NC(=O)Nc2ccc3c(c2)C(=O)N([C@@H](C)CO)C[C@H](C)[C@H](CN(C)S(C)(=O)=O)O3)cc1`: the cytotoxicity call in the test on HSkMC was “inactive”. In addition, the cytotoxicity call in the test with HepG2 is “active”. The growth inhibition call in the test with S. aureus RN4220 was “inactive”.
With `C[C@@H]1CCCCO[C@@H](CN(C)S(=O)(=O)c2cccs2)[C@@H](C)CN([C@@H](C)CO)C(=O)c2cc(NC(=O)Nc3ccc4c(c3)OCO4)ccc2O1`, the cytotoxicity call with HSkMC and in the test on HepG2 was “inactive” each time. In the test on S. aureus RN4220, the growth inhibition call was “inactive”.
Consider `CCC(=O)OC1C2CC3=C4CC(=O)OC(c5ccoc5)C4(C)CCC3C(C)(C2=O)C(CC(=O)OC)C1(C)C` (stereo unspecified), for which the cytotoxicity call in the test on HSkMC and with HepG2 was “inactive” in each case. In addition, in the test with S. aureus RN4220, the growth inhibition call was “inactive”.
For `C[C@H]1CN([C@@H](C)CO)C(=O)c2cccc(NC(=O)Nc3ccc4c(c3)OCO4)c2O[C@H]1CN(C)Cc1ccc(C(=O)Nc2ccccc2N)cc1`, the cytotoxicity call in the test on HSkMC and in the test with HepG2 was “inactive” each time. The growth inhibition call with S. aureus RN4220 was “inactive”.
Regarding `C[C@@H]1CN([C@H](C)CO)C(=O)c2cccc(NC(=O)C3CC3)c2O[C@H]1CN(C)Cc1ccc(C(=O)O)cc1`, the cytotoxicity call in the test with HSkMC and with HepG2 was “inactive” in each case. Moreover, in the test with S. aureus RN4220, the growth inhibition call is “inactive”.
As to `CCOc1nc2ccccc2c(=O)n1CCO`, the cytotoxicity call in the test on HSkMC and in the test on HepG2 was “inactive” in each case. Also, in the test on S. aureus RN4220, the growth inhibition call is “inactive”.
Consider `C[C@@H]1CCCCO[C@@H](CN(C)S(=O)(=O)c2ccc(Cl)cc2)[C@@H](C)CN([C@@H](C)CO)C(=O)c2cc(NC(=O)c3ccccc3)ccc2O1`, for which the cytotoxicity call in the test with HSkMC and with HepG2 was “inactive” in each case. Moreover, the growth inhibition call in the test on S. aureus RN4220 was “inactive”.
For `C[C@H](CO)N1C[C@H](C)[C@H](CN(C)Cc2ccc(C(F)(F)F)cc2)OCCCC[C@H](C)Oc2ccc(NC(=O)CCC(F)(F)F)cc2C1=O`, the cytotoxicity call in the test with HSkMC and with HepG2 was “inactive” throughout. Besides, the growth inhibition call with S. aureus RN4220 was “inactive”.
Regarding `CC12CCC(=O)C=C1C1CC1C1C2CCC2(C)C1C1CC1C21CCC(=O)O1` (stereo unspecified), the cytotoxicity call with HSkMC and with HepG2 was “inactive” in each case. Also, in the test on S. aureus RN4220, the growth inhibition call is “inactive”.
`Cn1cnc(S(=O)(=O)N2C[C@H](O)COC[C@@H]3O[C@H](CC(=O)NCc4ccc(F)cc4)CC[C@H]32)c1`: the cytotoxicity call in the test with HSkMC and with HepG2 was “inactive” in each case. Besides, the growth inhibition call in the test on S. aureus RN4220 is “inactive”.
`C[C@@H]1CCCCO[C@H](CN(C)Cc2ccccc2)[C@H](C)CN([C@H](C)CO)C(=O)c2cc(NC(=O)Nc3ccc(C(F)(F)F)cc3)ccc2O1`: the cytotoxicity call in the test with HSkMC and with HepG2 was “active” each time. Also, the growth inhibition call with S. aureus RN4220 was “inactive”.
In the case of `O=C1O[C@H](c2ccccc2)[C@H](c2ccccc2)N2[C@H]1[C@@H](C(=O)N1CCN(c3ncccn3)CC1)[C@]1(C(=O)Nc3ccc(C#CC4=CCCCC4)cc31)[C@H]2c1ccc(O)cc1`, the cytotoxicity call in the test with HSkMC and in the test with HepG2 was “inactive” each time. Besides, the growth inhibition call in the test with S. aureus RN4220 is “inactive”.
As to `C[C@@H]1CCCCO[C@@H](CN(C)Cc2ccc(Cl)c(Cl)c2)[C@H](C)CN([C@H](C)CO)C(=O)c2cc(NS(=O)(=O)c3ccc(Cl)cc3)ccc2O1`, the cytotoxicity call with HSkMC and in the test with HepG2 was “active” in each case. Besides, in the test with S. aureus RN4220, the growth inhibition call was “inactive”.
Regarding `COc1ccccc1S(=O)(=O)N(C)C[C@H]1OCc2cn(nn2)CCCC(=O)N([C@@H](C)CO)C[C@H]1C`, the cytotoxicity call in the test on HSkMC and in the test on HepG2 was “inactive” each time. Further, in the test with S. aureus RN4220, the growth inhibition call was “inactive”.
In the case of `CCN(CC)CCNc1ccc(COc2cccc(/C=C(C)/C=C/C(=O)NO)c2)c2sc3ccccc3c(=O)c12`, the cytotoxicity call in the test with HSkMC and with HepG2 was “inactive” throughout. The growth inhibition call in the test on S. aureus RN4220 is “inactive”.
With `C[C@@H]1CCCCO[C@H](CN(C)S(=O)(=O)c2cccs2)[C@H](C)CN([C@@H](C)CO)C(=O)c2cc(NC(=O)Nc3cccc4ccccc34)ccc2O1`, the cytotoxicity call in the test on HSkMC and in the test on HepG2 was “inactive” each time. The growth inhibition call in the test with S. aureus RN4220 was “inactive”.
For `C[C@@H]1CN([C@@H](C)CO)C(=O)c2cc(NC(=O)Nc3cccc4ccccc34)ccc2O[C@@H](C)CCCCO[C@@H]1CN(C)Cc1ccc(C(=O)O)cc1`, the cytotoxicity call in the test with HSkMC and in the test on HepG2 was “inactive” each time. The growth inhibition call in the test on S. aureus RN4220 was “inactive”.
On to `C[C@H]1CN([C@@H](C)CO)C(=O)c2cccc(NC(=O)Nc3ccc(C(F)(F)F)cc3)c2O[C@@H]1CN(C)Cc1ccc(Oc2ccccc2)cc1`, for which the cytotoxicity call with HSkMC and in the test on HepG2 was “inactive” in each case. Besides, the growth inhibition call in the test on S. aureus RN4220 is “inactive”.
With `NC[C@H]1O[C@H](O[C@H]2[C@@H](O[C@@H]3O[C@H](CO)[C@@H](O)[C@H]3O)[C@@H](O)[C@H](N)C[C@@H]2N)[C@H](N)[C@@H](O)[C@@H]1O`, the cytotoxicity call with HSkMC and in the test on HepG2 was “inactive” throughout. Also, the growth inhibition call in the test with S. aureus RN4220 is “inactive”.
With `CC(C)NC(=O)[C@@]1(c2ccc([N+](=O)[O-])cc2)CC(=O)N(CC23CC4CC(CC(C4)C2)C3)[C@@H]1c1ccc(CO)cc1I`, the cytotoxicity call in the test on HSkMC is “inactive”. For the same compound, in the test with HepG2, the cytotoxicity call is “active”. Also, the growth inhibition call with S. aureus RN4220 is “inactive”.
For the compound `COc1ccc(S(=O)(=O)N(C)C[C@@H]2Oc3ccc(NS(=O)(=O)c4cn(C)cn4)cc3C(=O)N([C@H](C)CO)C[C@@H]2C)cc1`, the cytotoxicity call in the test on HSkMC (human skeletal muscle cells) and with HepG2 was “inactive” in each case. In addition, in the test with S. aureus RN4220, the growth inhibition call was “inactive”.
Take `CN(C)CCCNC(=O)[C@@H]1[C@@H](CO)[C@@H]2Cn3c(ccc(-c4ccncc4)c3=O)[C@H]1N2C(=O)C1CC1`: the cytotoxicity call with HSkMC and in the test with HepG2 was “inactive” each time. Also, the growth inhibition call in the test with S. aureus RN4220 is “inactive”.
Turning to `C[C@@H]1CN([C@@H](C)CO)C(=O)c2cc(NC(=O)C3CC3)ccc2O[C@H]1CN(C)Cc1ccc(-c2ccccc2)cc1`, the cytotoxicity call in the test with HSkMC and in the test with HepG2 was “inactive” throughout. Moreover, the growth inhibition call in the test on S. aureus RN4220 was “inactive”.
`C[C@@H]1CN([C@@H](C)CO)C(=O)c2cccc(NC(=O)c3ccc(-c4nccs4)cc3)c2O[C@@H]1CN(C)Cc1ccc(Cl)c(Cl)c1`: the cytotoxicity call with HSkMC was “inactive”. The cytotoxicity call with HepG2 is “active”. In addition, the growth inhibition call in the test on S. aureus RN4220 is “inactive”.
